A collection of fitness landscapes (doi:10.1126/science.1257360)
This is one part of the list.

B1: PhoQ; a variant is named by its letters at X, in order, P23837 (parent)
chain: MKKLLRLFFPLSLRVRFLLATAAVVLVLSLAYGMVALIGYSVSFDKTTFRLLRGESNLFYTLAKWENNKLHVELPENIDKQSPTMTLIYDENGQLLWAQRDVPWLMKMIQPDWLKSNGFHEIEADVNDTSLLLSGDHSIQQQLQEVREDDDDAEMTHSVAVNVYPATSRMPKLTIVVVDTIPVELKSSYMVWSWFIYVLSANLLLVIPLLWVAAWWSLRPIEALAKEVRELEEHNRELLNPATTRELTSLVRNLNRLLKSERERYDKYRTTLTDLTHSLKTPLXXLQXXLRSLRSEKMSVSDAEPVMLEQISRISQQIGYYLHRASMRGGTLLSRELHPVAPLLDNLTSALNKVYQRKGVNISLDISPEISFVGEQNDFVEVMGNVLDNACKYCLEFVEISARQTDEHLYIVVEDDGPGIPLSKREVIFDRGQRVDTLRPGQGVGLAVAREITEQYEGKIVAGESMLGGARMEVIFGRQHSAPKDE

Variants of: B1
Test: enrichment ratio after two sorts for PhoP signalling (ratio (wild type AVST 3.29)); higher = more functional
Conditions: with PhoP (E. coli)

Point of comparison: VIML, enrichment ratio 0.384. Against it:
- WGID — lower, ≤ 0.25
- MQNN — lower, ≤ 0.25
- AYAR — lower, ≤ 0.25
- YAFH — lower, ≤ 0.25
- PTHH — lower, ≤ 0.25
- SQNE — lower, ≤ 0.25
- FKHE — lower, ≤ 0.25
- STIM — higher, 15.3
- GDCI — lower, ≤ 0.25
- KMIN — lower, ≤ 0.25
- TWGI — lower, ≤ 0.25
- FRPP — lower, ≤ 0.25
- ICDY — lower, ≤ 0.25
- MTNA — lower, ≤ 0.25
- LDLM — lower, ≤ 0.25
- ANHV — lower, ≤ 0.25
- DNVW — lower, ≤ 0.25
- VCKA — lower, ≤ 0.25
- QRKG — lower, ≤ 0.25
- PVHN — lower, ≤ 0.25
- LCFL — lower, ≤ 0.25
- WPDD — lower, ≤ 0.25
- ICIT — lower, ≤ 0.25
- YRAM — lower, ≤ 0.25
- WKPR — lower, ≤ 0.25
- QTSC — higher, 2.29
- DMIN — lower, ≤ 0.25
- QATP — lower, ≤ 0.25
- DVVR — lower, ≤ 0.25
- TYSA — higher, 7.8
- KRQD — lower, ≤ 0.25
- LEQM — lower, ≤ 0.25
- GMPM — lower, ≤ 0.25
- GSNM — lower, ≤ 0.25
- RATR — lower, ≤ 0.25
- FTWG — lower, ≤ 0.25
- RIEI — lower, ≤ 0.25
- TVSE — higher, 14.1
- CFYQ — lower, ≤ 0.25
- GERC — lower, ≤ 0.25
- GTTV — lower, ≤ 0.25
- TYYQ — lower, ≤ 0.25
- STDN — lower, ≤ 0.25
- FHLI — lower, ≤ 0.25
- NHEL — lower, ≤ 0.25
- LPHV — lower, ≤ 0.25
- FDQW — lower, ≤ 0.25
- TPAQ — lower, ≤ 0.25
- SAHN — lower, ≤ 0.25
- FCLW — lower, ≤ 0.25
- KRDS — lower, ≤ 0.25
- YFSF — lower, ≤ 0.25
- QLDL — higher, 1.16
- LLTT — lower, ≤ 0.25
- SAKF — lower, ≤ 0.25
- RLHC — lower, ≤ 0.25
- VWYS — lower, ≤ 0.25
- VWCY — lower, ≤ 0.25
- EQPF — lower, ≤ 0.25
- YPIY — lower, ≤ 0.25
- GDKV — lower, ≤ 0.25
- EKVD — lower, ≤ 0.25
- CCCG — lower, ≤ 0.25
- NLDA — lower, ≤ 0.25
- MDTM — lower, ≤ 0.25
- LTTS — lower, ≤ 0.25
- WYFE — lower, ≤ 0.25
- PIYW — lower, ≤ 0.25
- LWFA — higher, 0.467
- EGPS — lower, ≤ 0.25
- NHAF — lower, ≤ 0.25
- LQWI — lower, ≤ 0.25
- LDLN — lower, ≤ 0.25
- ETVG — lower, ≤ 0.25
- HQCR — lower, ≤ 0.25
- SFHC — lower, ≤ 0.25
- RRRM — lower, ≤ 0.25
- QRRF — lower, ≤ 0.25
- TLDE — lower, ≤ 0.25
- GETP — lower, ≤ 0.25
- LGDN — lower, ≤ 0.25
- ENVR — lower, ≤ 0.25
- GPSC — lower, ≤ 0.25
- PFHC — lower, ≤ 0.25
- QKLV — higher, 2.4
- TQTN — higher, 15.4
- KSGR — lower, ≤ 0.25
- QEDI — lower, ≤ 0.25
- TYTM — higher, 4.58
- INPS — lower, ≤ 0.25
- IKFK — lower, ≤ 0.25
- KSVK — lower, ≤ 0.25
- LMWK — lower, ≤ 0.25
- IVCI — lower, ≤ 0.25
- IETY — lower, ≤ 0.25
- FFCF — lower, ≤ 0.25
- NDWP — lower, ≤ 0.25
- FGIC — lower, ≤ 0.25
- TCAH — higher, 11.7
- RDVC — lower, ≤ 0.25
- IHNF — lower, ≤ 0.25
- RGMS — lower, ≤ 0.25
- NITF — lower, ≤ 0.25
- FNEV — lower, ≤ 0.25
- AKWK — lower, ≤ 0.25
- KYCH — lower, ≤ 0.25
- YRTG — lower, ≤ 0.25
- NRMY — lower, ≤ 0.25
- LTIC — lower, ≤ 0.25
- KLFM — lower, ≤ 0.25
- LGMW — lower, ≤ 0.25
- MQSQ — lower, ≤ 0.25
- QANM — lower, ≤ 0.25
- RVVM — lower, ≤ 0.25
- RLDV — lower, ≤ 0.25
- WIVC — lower, ≤ 0.25
- VTVN — lower, ≤ 0.25
- GQPG — lower, ≤ 0.25
- TQSQ — higher, 8.74
- QGKC — lower, ≤ 0.25
- DYRV — lower, ≤ 0.25
- PCGD — lower, ≤ 0.25
- RYEH — lower, ≤ 0.25
- IWMM — lower, ≤ 0.25
- DMKM — lower, ≤ 0.25
- TYLQ — lower, ≤ 0.25
- FLVE — lower, ≤ 0.25
- YFYP — lower, ≤ 0.25
- ITWQ — lower, ≤ 0.25
- MYNW — lower, ≤ 0.25
- VPDG — lower, ≤ 0.25
- DMSC — lower, ≤ 0.25
- LHGG — lower, ≤ 0.25
- ACRL — lower, ≤ 0.25
- SMCV — higher, 9.73
- PVKA — lower, ≤ 0.25
- YPMN — lower, ≤ 0.25
- FEWI — lower, ≤ 0.25
- NLIQ — lower, ≤ 0.25
- EIRT — lower, ≤ 0.25
- HYTM — lower, ≤ 0.25
- HYVH — lower, ≤ 0.25
- GNFN — lower, ≤ 0.25
- HASL — lower, ≤ 0.25
- LKEV — lower, ≤ 0.25
- EDMA — lower, ≤ 0.25
- KLPP — lower, ≤ 0.25
- FKLW — lower, ≤ 0.25
- RTNY — lower, ≤ 0.25
- ESRW — lower, ≤ 0.25
- MLRF — lower, ≤ 0.25
- SMPY — lower, ≤ 0.25
- GDHC — lower, ≤ 0.25
- DTGA — lower, ≤ 0.25
- RALP — lower, ≤ 0.25
- SKMS — higher, 5.22
- AQPY — lower, ≤ 0.25
- YVMA — higher, 0.597
- DKPR — lower, ≤ 0.25
- PKQN — lower, ≤ 0.25
- IGYH — lower, ≤ 0.25
- WVYI — lower, ≤ 0.25
- IWKP — lower, ≤ 0.25
- DQYG — lower, ≤ 0.25
- LIEN — lower, ≤ 0.25
- QAKD — lower, ≤ 0.25
- RWIC — lower, ≤ 0.25
- FRQM — lower, ≤ 0.25
- IVPQ — lower, ≤ 0.25
- VWGF — lower, ≤ 0.25
- TTAV — higher, 6.68
- FQMM — higher, 5.91
- KRMS — lower, ≤ 0.25
- NDWI — lower, ≤ 0.25
- KPDG — lower, ≤ 0.25
- NKVE — lower, ≤ 0.25
- TFPW — lower, ≤ 0.25
- RQIS — lower, ≤ 0.25
- WRPT — lower, ≤ 0.25
- FIGI — lower, ≤ 0.25
- FSWG — lower, ≤ 0.25
- QFWM — lower, ≤ 0.25
- AIPV — higher, 1.47
- EDDS — lower, ≤ 0.25
- WDRG — lower, ≤ 0.25
- AKED — lower, ≤ 0.25
- RCRQ — lower, ≤ 0.25
- SDNI — lower, ≤ 0.25
- TCMV — higher, 14.6
- EQEG — lower, ≤ 0.25
- HLQP — lower, ≤ 0.25
- SMNT — lower, ≤ 0.25
- KYYN — lower, ≤ 0.25
- NRMI — lower, ≤ 0.25
